According to article PMC12483278, “The viral BCL2 protein BHRF1 of Epstein–Barr virus promotes AIM2 inflammasome activation to facilitate lytic replication” (PLOS Pathogens, 2025):
Residue numbers refer to the chain shown, from its start. Numbers in names are those of the source. No constants are given. Whether binding was seen depends on the method and setting. For part of these data: Binding seen in cells or lysates may run through a third protein. Some results given as binding are weak or reduced against the parent protein; the word gives no strength. For part of these data: Where a sequence is shown, tags or fusion partners need not be part of it.

The chains behind the UniProt entries cited, without tags or fusion partners.
UniProt P29466: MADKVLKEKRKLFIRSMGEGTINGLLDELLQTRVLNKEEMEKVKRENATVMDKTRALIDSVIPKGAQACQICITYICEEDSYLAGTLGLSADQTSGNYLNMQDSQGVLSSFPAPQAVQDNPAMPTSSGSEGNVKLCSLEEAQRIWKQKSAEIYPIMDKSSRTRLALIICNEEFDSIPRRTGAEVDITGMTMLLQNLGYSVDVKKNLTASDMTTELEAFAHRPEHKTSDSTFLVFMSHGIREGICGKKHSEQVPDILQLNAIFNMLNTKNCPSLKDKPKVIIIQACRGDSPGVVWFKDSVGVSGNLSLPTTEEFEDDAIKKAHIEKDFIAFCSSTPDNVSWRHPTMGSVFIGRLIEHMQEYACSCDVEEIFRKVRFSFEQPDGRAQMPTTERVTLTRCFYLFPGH
UniProt Q9ULZ3: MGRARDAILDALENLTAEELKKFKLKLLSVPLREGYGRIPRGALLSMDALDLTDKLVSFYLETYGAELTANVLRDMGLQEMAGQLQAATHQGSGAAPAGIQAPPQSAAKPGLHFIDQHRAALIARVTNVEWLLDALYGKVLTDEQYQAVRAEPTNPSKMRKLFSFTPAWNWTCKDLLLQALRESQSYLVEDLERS
UniProt Q16666: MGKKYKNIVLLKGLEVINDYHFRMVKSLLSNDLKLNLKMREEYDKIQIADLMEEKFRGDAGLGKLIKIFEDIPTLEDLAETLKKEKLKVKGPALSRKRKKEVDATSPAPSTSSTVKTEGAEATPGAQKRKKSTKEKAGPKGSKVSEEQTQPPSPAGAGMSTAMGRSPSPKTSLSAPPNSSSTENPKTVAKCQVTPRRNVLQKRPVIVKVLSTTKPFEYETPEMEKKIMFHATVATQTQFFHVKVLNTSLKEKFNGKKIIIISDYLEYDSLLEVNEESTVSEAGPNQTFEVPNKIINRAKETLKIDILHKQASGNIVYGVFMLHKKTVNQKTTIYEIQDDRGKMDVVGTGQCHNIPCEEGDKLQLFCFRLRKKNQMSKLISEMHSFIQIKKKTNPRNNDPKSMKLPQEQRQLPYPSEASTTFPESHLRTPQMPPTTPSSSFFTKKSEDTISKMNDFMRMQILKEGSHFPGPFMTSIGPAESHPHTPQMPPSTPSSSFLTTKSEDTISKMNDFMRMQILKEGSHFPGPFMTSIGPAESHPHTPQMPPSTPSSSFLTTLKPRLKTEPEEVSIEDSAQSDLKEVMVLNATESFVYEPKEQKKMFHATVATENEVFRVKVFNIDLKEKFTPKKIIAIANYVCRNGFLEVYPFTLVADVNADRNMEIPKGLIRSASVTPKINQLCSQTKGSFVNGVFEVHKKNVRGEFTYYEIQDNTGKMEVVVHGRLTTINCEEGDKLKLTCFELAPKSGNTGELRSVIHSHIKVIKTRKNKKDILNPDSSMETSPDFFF

Assays:
[1] = target: BHRF1 (endogenous, P3HR1 cells in lytic replication) (Epstein–Barr virus (endogenous in P3HR1)) (UniProt P03182); assay: co-IP; P3HR1 cells left untreated or induced with TPA plus NaB for 48 h; cell lysates immunoprecipitated with an anti-BHRF1 antibody, western blotting
[2] = target: T1, GST-AIM2 full-length (UniProt O14862); assay: co-IP
T1 sequence: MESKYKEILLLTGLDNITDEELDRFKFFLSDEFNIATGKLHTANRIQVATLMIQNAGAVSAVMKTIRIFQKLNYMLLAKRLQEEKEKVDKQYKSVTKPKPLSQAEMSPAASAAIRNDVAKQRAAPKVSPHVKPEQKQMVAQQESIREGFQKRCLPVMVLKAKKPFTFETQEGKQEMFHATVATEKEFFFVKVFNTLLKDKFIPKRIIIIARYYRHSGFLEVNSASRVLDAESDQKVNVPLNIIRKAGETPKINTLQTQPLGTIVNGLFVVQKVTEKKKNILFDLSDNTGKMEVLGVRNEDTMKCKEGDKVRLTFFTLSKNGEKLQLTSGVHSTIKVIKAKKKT

[3] = target: T2, GST-AIM2 E186A (UniProt O14862); assay: co-IP
T2 sequence: T1 sequence with E186A

[4] = target: GST-tagged BHRF1 (Epstein–Barr virus) (UniProt P03182); assay: co-IP
[5] = target: T3, GST-AIM2 full-length, O14862; assay: co-IP; HEK293T cells transfected with GST-fused and Flag-tagged AIM2 WT or E186A alone or together for 36 h, infected with HSV-1 (MOI = 1) for 12 h; immunoprecipitation and western blotting; settings: remark: other sources report otherwise
T3 chain: T1 sequence

[6] = target: T3, GST-AIM2 full-length, O14862; assay: pull-down; purified GST-AIM2 and Flag-AIM2-His mixed and incubated overnight at 4 °C in the presence of purified dsDNA; GST-affinity beads, western blotting; both purified; settings: remark: other sources report otherwise
[7] = target: T2, GST-AIM2 E186A; assay: co-IP; HEK293T cells transfected with GST-fused and Flag-tagged AIM2 WT or E186A alone or together for 36 h, infected with HSV-1 (MOI = 1) for 12 h; immunoprecipitation and western blotting

## Caspase-1 (endogenous, P3HR1 cells) (from UniProt P29466 1-404) (enzyme)
[1]
  binding: binds

## GFP-BHRF1 Δ157–191 (from UniProt P03182 1-156) (domain or fragment)
[2]
  binding: no binding

## ASC (endogenous, P3HR1 cells) (from UniProt Q9ULZ3 1-195)
[1]
  binding: binds

## Flag-tagged BHRF1 WT (from UniProt P03182 1-191)
[2]
  binding: binds

## IFI16 (endogenous, P3HR1 cells) (from UniProt Q16666 1-785)
[1]
  binding: no binding

## GFP-BHRF1 fragment aa109–191 (from UniProt P03182 109-191) (domain or fragment)
[2]
  binding: binds

## GFP-BHRF1 wild-type (from UniProt P03182 1-191)
[2]
  binding: binds
[3]
  binding: no binding

## GFP-BHRF1 C-terminal fragment aa157–191 (from UniProt P03182 157-191) (domain or fragment)
[2]
  binding: binds

B1: RIG-I (endogenous, P3HR1 cells) (protein, UniProt O95786 1-925)
chain: MTTEQRRSLQAFQDYIRKTLDPTYILSYMAPWFREEEVQYIQAEKNNKGPMEAATLFLKFLLELQEEGWFRGFLDALDHAGYSGLYEAIESWDFKKIEKLEEYRLLLKRLQPEFKTRIIPTDIISDLSECLINQECEEILQICSTKGMMAGAEKLVECLLRSDKENWPKTLKLALEKERNKFSELWIVEKGIKDVETEDLEDKMETSDIQIFYQEDPECQNLSENSCPPSEVSDTNLYSPFKPRNYQLELALPAMKGKNTIICAPTGCGKTFVSLLICEHHLKKFPQGQKGKVVFFANQIPVYEQQKSVFSKYFERHGYRVTGISGATAENVPVEQIVENNDIIILTPQILVNNLKKGTIPSLSIFTLMIFDECHNTSKQHPYNMIMFNYLDQKLGGSSGPLPQVIGLTASVGVGDAKNTDEALDYICKLCASLDASVIATVKHNLEELEQVVYKPQKFFRKVESRISDKFKYIIAQLMRDTESLAKRICKDLENLSQIQNREFGTQKYEQWIVTVQKACMVFQMPDKDEESRICKALFLYTSHLRKYNDALIISEHARMKDALDYLKDFFSNVRAAGFDEIEQDLTQRFEEKLQELESVSRDPSNENPKLEDLCFILQEEYHLNPETITILFVKTRALVDALKNWIEGNPKLSFLKPGILTGRGKTNQNTGMTLPAQKCILDAFKASGDHNILIATSVADEGIDIAQCNLVILYEYVGNVIKMIQTRGRGRARGSKCFLLTSNAGVIEKEQINMYKEKMMNDSILRLQTWDEAVFREKILHIQTHEKFIRDSQEKPKPVPDKENKKLLCRKCKALACYTADVRVIEECHYTVLGDAFKECFVSRPHPKPKQFSSFEKRAKIFCARQNCSHDWGIHVKYKTFEIPVIKIESFVVEDIATGVQTLYSKWKDFHFEKIPFDPAEMSK
[1]
  binding: no binding

B2: Flag-AIM2 (protein, UniProt O14862 1-343)
chain: T1 sequence
[4]
  binding: binds

B3: GST-AIM2 full-length, O14862 1-343 (protein)
chain: T1 sequence
[5]
  binding: binds
[6]
  binding: binds

B4: AIM2 (endogenous, P3HR1 cells) (protein, UniProt O14862 1-343)
chain: T1 sequence
[1]
  binding: binds

B5: GST-AIM2 E186A (protein, UniProt O14862 1-343)
chain: T1 sequence with E186A
[7]
  binding: binds
